Assay results: patent publication US9433687B2, “Anti-Notch3 antibodies and antibody-drug conjugates” (Pfizer Inc., priority 2012, dated 2016)

Columns and labels:
[1] = test system: 37622A1 NSCLC patient-derived xenografts; assay: 37622A1 patient derived NSCLC xenograft model; assay type: in vivo, mouse
Description: The effects of anti-Notch3 ADCs were examined in immunodeficient mice on the in vivo growth of human tumor xenografts that were established from fragments of freshly resected 37622A1 NSCLC tumors obtained in accordance with appropriate consent procedures (Asterand). The 37622A1 NSCLC patient-derived xenografts were subcutaneously passaged in vivo as fragments from animal to animal in nude (Nu/Nu) female mice. When the tumors reached a volume of 150 to 300 mm^3, they were staged to ensure uniformity of the tumor size among various treatment groups. The 37622A1 NSCLC patient-derived xenografts model was dosed intravenously four times every four days (Q4d×4) with PBS vehicle, humanized anti-Notch3 ADCs, control huNeg-8.8 ADCs and cisplatin at the doses provided in Table 19.

[2] = test system: caspase-3/7 activity in MDA-MB-468/hNotch3; assay: Caspase-Glo 3/7 apoptosis assay, MDA-MB-468/hNotch3; assay type: cell-based, human
Protocol: Caspase-3 and caspase-7 (caspase-3/7) proteases are key members of the programmed cell death machinery responsible for mediating late apoptotic events in mammalian cells. The activity of caspase-3/7 was measured in Notch3 expressing cell lines that were treated with Notch3-ADCs.
OVCAR3, HCC2429 and MDA-MB-468/hNotch3 cells were seeded onto opaque white tissue culture plates and incubated overnight. OVCAR3 and HCC2429 were treated at 1.1 μg/ml and MDA-MB-468/hNotch3 cells were treated 1 μg/ml of hu28-vc0101 and huNeg8.8-vc010 (control ADC). After 48 hours incubation, cells were treated with the Caspase-Glo 3/7 reagent (Promega #G8090) for 2 hours at room temperature. Luminescence was measured with a luminometer and following subtraction of background, values were reported as relative luminescence units.

[3] = molecular target: T1, HCC2429 (Homo sapiens, UniProt Q9UM47); assay: Cytotoxicity (MTS) after control or Notch3 siRNA, HCC2429; assay type: cell-based; settings: 96 hours, LP = lacked potency; for IC50 (ng Ab/mL) ± S.E.M., HCC2429 Notch3 siRNA: Notch3 siRNA knockdown
T1 construct: endogenous Notch3 expressing cell lines, HCC2429 and MDA-MB-468; endogenous in cells; host or cells: HCC2429
T1 sequence (Q9UM47 40-2321): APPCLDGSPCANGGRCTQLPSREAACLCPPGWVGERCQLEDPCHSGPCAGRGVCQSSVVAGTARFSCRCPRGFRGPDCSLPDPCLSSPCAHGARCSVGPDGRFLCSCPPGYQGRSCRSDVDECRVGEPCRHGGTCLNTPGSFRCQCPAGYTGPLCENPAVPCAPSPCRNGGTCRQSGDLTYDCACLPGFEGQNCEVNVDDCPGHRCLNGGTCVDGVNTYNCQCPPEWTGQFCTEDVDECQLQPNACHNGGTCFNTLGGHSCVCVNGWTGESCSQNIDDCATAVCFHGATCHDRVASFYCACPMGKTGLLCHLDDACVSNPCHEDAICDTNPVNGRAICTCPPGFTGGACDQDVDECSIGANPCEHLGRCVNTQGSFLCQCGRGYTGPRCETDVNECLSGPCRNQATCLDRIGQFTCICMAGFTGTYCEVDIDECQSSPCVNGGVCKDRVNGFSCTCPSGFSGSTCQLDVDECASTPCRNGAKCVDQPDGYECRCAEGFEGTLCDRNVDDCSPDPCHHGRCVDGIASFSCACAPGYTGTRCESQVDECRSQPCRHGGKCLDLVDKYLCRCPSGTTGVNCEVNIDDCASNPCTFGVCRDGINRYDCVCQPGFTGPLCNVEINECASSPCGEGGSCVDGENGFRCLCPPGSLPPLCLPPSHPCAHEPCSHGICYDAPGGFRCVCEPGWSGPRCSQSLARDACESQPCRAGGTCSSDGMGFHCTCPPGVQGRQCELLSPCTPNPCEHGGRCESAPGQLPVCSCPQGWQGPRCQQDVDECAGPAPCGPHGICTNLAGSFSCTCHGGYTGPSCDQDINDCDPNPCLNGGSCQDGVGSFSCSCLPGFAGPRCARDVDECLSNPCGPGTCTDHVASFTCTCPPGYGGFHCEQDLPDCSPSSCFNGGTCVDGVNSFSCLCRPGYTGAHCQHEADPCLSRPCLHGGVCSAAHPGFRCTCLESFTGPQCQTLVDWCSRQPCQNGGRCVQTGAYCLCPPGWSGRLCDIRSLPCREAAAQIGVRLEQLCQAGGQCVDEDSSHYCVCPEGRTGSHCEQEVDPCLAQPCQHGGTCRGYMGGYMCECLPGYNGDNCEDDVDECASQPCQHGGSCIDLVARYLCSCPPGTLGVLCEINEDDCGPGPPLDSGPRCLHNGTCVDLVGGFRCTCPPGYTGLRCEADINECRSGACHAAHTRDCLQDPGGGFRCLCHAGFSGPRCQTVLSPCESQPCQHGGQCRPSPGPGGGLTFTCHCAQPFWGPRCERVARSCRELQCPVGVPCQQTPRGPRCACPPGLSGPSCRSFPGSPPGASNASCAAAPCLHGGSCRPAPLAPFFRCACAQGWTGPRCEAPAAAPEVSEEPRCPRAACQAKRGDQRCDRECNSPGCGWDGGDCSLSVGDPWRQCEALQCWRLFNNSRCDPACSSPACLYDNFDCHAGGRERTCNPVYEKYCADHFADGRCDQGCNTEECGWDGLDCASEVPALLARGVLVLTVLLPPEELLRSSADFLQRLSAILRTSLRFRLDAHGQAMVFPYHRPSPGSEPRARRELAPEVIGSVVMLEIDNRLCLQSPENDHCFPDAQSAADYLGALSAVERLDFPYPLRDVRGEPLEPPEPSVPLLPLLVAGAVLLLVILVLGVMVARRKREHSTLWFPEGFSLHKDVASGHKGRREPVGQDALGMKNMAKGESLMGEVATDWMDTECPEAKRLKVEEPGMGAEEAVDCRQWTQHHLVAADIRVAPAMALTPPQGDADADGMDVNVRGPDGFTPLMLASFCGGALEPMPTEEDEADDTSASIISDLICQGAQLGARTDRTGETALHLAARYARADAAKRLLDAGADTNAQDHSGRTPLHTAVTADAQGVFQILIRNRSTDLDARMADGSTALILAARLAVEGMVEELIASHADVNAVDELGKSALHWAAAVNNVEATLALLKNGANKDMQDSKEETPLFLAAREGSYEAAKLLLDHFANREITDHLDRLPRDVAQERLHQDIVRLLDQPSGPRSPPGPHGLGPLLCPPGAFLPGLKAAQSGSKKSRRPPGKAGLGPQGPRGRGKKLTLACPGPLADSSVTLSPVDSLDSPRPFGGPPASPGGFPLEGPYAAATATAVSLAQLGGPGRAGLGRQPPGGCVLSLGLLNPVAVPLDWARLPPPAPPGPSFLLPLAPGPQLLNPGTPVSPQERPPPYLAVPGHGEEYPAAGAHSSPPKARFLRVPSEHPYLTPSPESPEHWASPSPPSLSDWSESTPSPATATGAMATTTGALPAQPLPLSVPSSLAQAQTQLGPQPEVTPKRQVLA
Protocol: Notch3 knockdown with siRNAs was used to confirm that the in vitro cytotoxicity of anti-Notch3 ADCs was dependent on the expression of the Notch3 protein. siRNA transfections were generated using ON-TARGET plus SMART pool human Notch3 (L-011093-00), ON-TARGET plus Control Non-Targeting pool (D-001810-10) (Thermo Scientific Dharmacon) and Lipofectamine RNAiMAX Reagent (Invitrogen). Two to 2.5×10^6 cells of HCC2429, OVCAR3 and MDA-MB-468/hNotch3 cells were plated in 10 cm dishes in growth medium without antibiotics the day before transfection. The next day fresh medium without antibiotics was added. The siRNAs and the Lipofectamine RNAiMAX were diluted in OPTI-MEM media and used as per the manufacturer's specifications. Each of the cell lines was transfected with control and Notch3 siRNAs. The cells were incubated with the transfection mixture for 24 hours in a humidified, 37° C., 5% CO2 incubator. After 24 hours, cells were trypsinized and plated for assessment using MTS cellular viability indicator (Promega, Madison, Wis.).
Depending on the cell line, cells were then seeded at a density of 2,500 to 5,000 cells per well 24 hours before treatment. Cells were treated with 3-fold serially diluted humanized anti-Notch3 ADCs in triplicates at 10 concentrations (range 0-30 μg Ab/ml). […] For experiments with 2 individual repeats, average IC50 values were calculated along with standard error of the mean (S.E.M.). Western blot analysis on extracts prepared from control and Notch3 siRNA-treated cells was performed to confirm that Notch3 knockdown occurred for up to 144 hours (data not shown). Cell lines that expressed Notch3 (herein termed control siRNA) or had reduced Notch3 expression after siRNA knockdown (herein termed Notch3 siRNA) were cultured with increasing concentrations of humanized anti Notch3 ADCs. As a specificity control for the anti-Notch3 ADCs, non-targeted control-ADCs (huNeg8.8-ADCs) were also tested on the same cell lines. After four days, viability of each culture was assessed. IC50 values were calculated by logistic non-linear regression, model #203 with XL fit v4.2 (IDBS, Guildford, Surry, UK) and presented as ng Ab/mL. The drug antibody ratio (DAR) is also provided.

B1: hu28-vc0101: hu28 conjugated to vc0101 linker-payload (conjugate)
heavy: EVQLVESGGGLVQPGGSLRLSCAASGFTFRDYGMTWVRQAPGKGLEWVAYISSGSNYIYYAEAVKGRFTISRDNAKNSLYLQMNSLRAEDTAVYYCARRGPFVLDAWGQGTLVTVSS[letters of human IgG1 constant region omitted]
light: DIQMTQSPSSLSASVGDRVTITCKASQSINRYLHWYQQKPGKAPKLLIYNANGLQTGVPSRFSGSGSGTDFTLTISSLQPEDFATYYCLQHNTWPDTFGGGTKVEIKRTVAAPSVFIFPPSDEQLKSGTASVVCLLNNFYPREAKVQWKVDNALQSGNSQESVTEQDSKDSTYSLSSTLTLSKADYEKHKVYACEVTHQGLSSPVTKSFNRGEC
Work on B1 yielded a tumor volume ([1]; Day 4, 3 mg/kg iv Q4dx4) of 202 mm^3, a tumor volume ([1]; Day 7, 3 mg/kg iv Q4dx4) of 202 mm^3 and a tumor volume ([1]; Day 11, 3 mg/kg iv Q4dx4) of 130 mm^3. It also gave a tumor volume ([1]; Day 14, 3 mg/kg iv Q4dx4) of 119 mm^3, a tumor volume ([1]; Day 18, 3 mg/kg iv Q4dx4) of 71 mm^3 and a tumor volume ([1]; Day 21, 3 mg/kg iv Q4dx4) of 55 mm^3. The tumor volume ([1]; Day 25, 3 mg/kg iv Q4dx4) was 49 mm^3, the tumor volume ([1]; Day 28, 3 mg/kg iv Q4dx4) was 41 mm^3 and the tumor volume ([1]; Day 32, 3 mg/kg iv Q4dx4) was 42 mm^3. It also gave a tumor volume ([1]; Day 35, 3 mg/kg iv Q4dx4) of 42 mm^3, a tumor volume ([1]; Day 39, 3 mg/kg iv Q4dx4) of 62 mm^3 and a tumor volume ([1]; Day 42, 3 mg/kg iv Q4dx4) of 75 mm^3. It also gave a tumor volume ([1]; Day 46, 3 mg/kg iv Q4dx4) of 92 mm^3, a tumor volume ([1]; Day 49, 3 mg/kg iv Q4dx4) of 120 mm^3 and a tumor volume ([1]; Day 53, 3 mg/kg iv Q4dx4) of 144 mm^3. The tumor volume ([1]; Day 56, 3 mg/kg iv Q4dx4) was 126 mm^3, the tumor volume ([1]; Day 60, 3 mg/kg iv Q4dx4) was 180 mm^3 and the tumor volume ([1]; Day 63, 3 mg/kg iv Q4dx4) was 223 mm^3. The tumor volume ([1]; Day 67, 3 mg/kg iv Q4dx4) was 296 mm^3, the tumor volume ([1]; Day 70, 3 mg/kg iv Q4dx4) was 312 mm^3 and the tumor volume ([1]; Day 74, 3 mg/kg iv Q4dx4) was 331 mm^3. The tumor volume ([1]; Day 77, 3 mg/kg iv Q4dx4) was 422 mm^3, the tumor volume ([1]; Day 81, 3 mg/kg iv Q4dx4) was 510 mm^3 and the tumor volume ([1]; Day 84, 3 mg/kg iv Q4dx4) was 622 mm^3. For the same molecule, the tumor volume ([1]; Day -1, 3 mg/kg iv Q4dx4) was 186 mm^3, the “animals still on study that remained tumor-free” value ([1]; by day 84, 3 mg/kg iv Q4dx4) was “four out of nine” and the “Relative luminescence units (caspase-3/7)” value ([2]; 1 μg/ml, 48 hours) was 78,622 ± 1160. For the same molecule, the “induction of caspase-3/7 activity over control Neg8.8-vc0101 treated cells” value ([2]; across MDA-MB-468/hNotch3, HCC2429 and OVCAR3 cells) was 2-3 fold, the “IC50 (ng Ab/mL) ± S.E.M., HCC2429 Control siRNA” value [3] was 930 ± 529 ng Ab/mL and the “IC50 (ng Ab/mL) ± S.E.M., HCC2429 Notch3 siRNA” value [3] was 7138 ± 827 ng Ab/mL.

B2: hu28-vc6780 (conjugate)
heavy: EVQLVESGGGLVQPGGSLRLSCAASGFTFRDYGMTWVRQAPGKGLEWVAYISSGSNYIYYAEAVKGRFTISRDNAKNSLYLQMNSLRAEDTAVYYCARRGPFVLDAWGQGTLVTVSS[letters of human IgG1 constant region omitted]
light: DIQMTQSPSSLSASVGDRVTITCKASQSINRYLHWYQQKPGKAPKLLIYNANGLQTGVPSRFSGSGSGTDFTLTISSLQPEDFATYYCLQHNTWPDTFGGGTKVEIKRTVAAPSVFIFPPSDEQLKSGTASVVCLLNNFYPREAKVQWKVDNALQSGNSQESVTEQDSKDSTYSLSSTLTLSKADYEKHKVYACEVTHQGLSSPVTKSFNRGEC
B2 gave a tumor volume ([1]; Day 4, 10 mg/kg iv Q4dx4) of 176 mm^3, a tumor volume ([1]; Day 7, 10 mg/kg iv Q4dx4) of 176 mm^3 and a tumor volume ([1]; Day 11, 10 mg/kg iv Q4dx4) of 122 mm^3. The tumor volume ([1]; Day 14, 10 mg/kg iv Q4dx4) was 95 mm^3, the tumor volume ([1]; Day 18, 10 mg/kg iv Q4dx4) was 65 mm^3 and the tumor volume ([1]; Day 21, 10 mg/kg iv Q4dx4) was 56 mm^3. For the same molecule, the tumor volume ([1]; Day 25, 10 mg/kg iv Q4dx4) was 51 mm^3, the tumor volume ([1]; Day 28, 10 mg/kg iv Q4dx4) was 51 mm^3 and the tumor volume ([1]; Day 32, 10 mg/kg iv Q4dx4) was 72 mm^3. The tumor volume ([1]; Day 35, 10 mg/kg iv Q4dx4) was 92 mm^3, the tumor volume ([1]; Day 39, 10 mg/kg iv Q4dx4) was 120 mm^3 and the tumor volume ([1]; Day 42, 10 mg/kg iv Q4dx4) was 151 mm^3. For the same molecule, the tumor volume ([1]; Day 46, 10 mg/kg iv Q4dx4) was 172 mm^3, the tumor volume ([1]; Day 49, 10 mg/kg iv Q4dx4) was 248 mm^3 and the tumor volume ([1]; Day 53, 10 mg/kg iv Q4dx4) was 339 mm^3. For the same molecule, the tumor volume ([1]; Day 56, 10 mg/kg iv Q4dx4) was 376 mm^3, the tumor volume ([1]; Day 60, 10 mg/kg iv Q4dx4) was 503 mm^3 and the tumor volume ([1]; Day 63, 10 mg/kg iv Q4dx4) was 604 mm^3. It also gave a tumor volume ([1]; Day 67, 10 mg/kg iv Q4dx4) of 888 mm^3, a tumor volume ([1]; Day 70, 10 mg/kg iv Q4dx4) of 773 mm^3 and a tumor volume ([1]; Day 74, 10 mg/kg iv Q4dx4) of 881 mm^3. For the same molecule, the tumor volume ([1]; Day 77, 10 mg/kg iv Q4dx4) was 1029 mm^3, the tumor volume ([1]; Day -1, 10 mg/kg iv Q4dx4) was 182 mm^3 and the “IC50 (ng Ab/mL) ± S.E.M., HCC2429 Control siRNA” value [3] was 259 ± 179 ng Ab/mL. For the same molecule, the “IC50 (ng Ab/mL) ± S.E.M., HCC2429 Notch3 siRNA” value [3] was 14120 ± 1175 ng Ab/mL.
